From the supplement of paper PMC10126150
Values marked as one replicate rest on one cluster of the flow cell; about a third of the high ones do not repeat.

System: ATP
Assay: switch fluorescence ratio, 500 uM ATP over buffer (Cy3 cluster intensity, sum of 5 cycles each) (fold (ratio)); higher = stronger signal-on switching upon ATP binding; sequences stand for … in TCGTCGGCAGCGTCAGATGTGTATAAGAGACAGTTTTTTTTTTTTTTTTTTTTTTTTT…TC
Settings: aptamer strand: ATP DNA aptamer (quencher-CACCTGGGGGAGTATTGCGGAGGAAGG + anchor), 100 nM annealed; ATP concentration: 500 uM; one replicate
Procedure, shortened: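 Five buffer/ATP imaging cycles were run on Cy3-labelled switching-strand clusters on a modified Illumina MiSeq flow-cell, with NaOH stripping and re-annealing between cycles. In each cycle, clusters annealed to 100 nM quencher-labelled ATP aptamer were imaged in selection buffer, then after 15 min with 500 uM ATP at 22 °C. Per cluster, the fluorescence ratio is summed target-cycle over summed buffer-cycle Cy3 intensity, averaged per switch-domain sequence. Only clusters within 100-1000 RFU were kept.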
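Further: ATP exposure 15 min at 22 °C before imaging.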

| Sequence | switch fluorescence ratio |
| --- | --- |
| TAGTTGATTG | 1 |
| ACAGAAGGTG | 1.53 |
| GGCACACCAA | 1.03 |
| ATACAATCAC | 1.21 |
| ATGTATTGGC | 0.996 |
| CACGAGCTCT | 1.04 |
| TACGCGGTTC | 1.11 |
| ATAGAACGGC | 1.05 |
| TATCATCGGG | 1.03 |
| GATACACACT | 1.45 |
| TAGGCTTCCC | 1.1 |
| TCACCGTGCG | 1.02 |
| TGAGGAGTTG | 1.04 |
| AACTAGGGGT | 1.01 |
| CGGCGAACAC | 1.1 |
| TTACTGACAT | 1.16 |
| TTTGCCAGTG | 1.02 |
| TTGTGATGCA | 1.04 |
| AATCTTTA | 0.984 |
| TCCCGTTGC | 2.8 |
| ACGGGAGGGT | 1.04 |
| TGCCAACAGT | 1.02 |
| CCATTGGCTT | 1.02 |
| CATTACCCGT | 1.05 |
| TTGATGAGAT | 1.06 |
| ACATGATGGG | 1.03 |

| Sequence | switch fluorescence ratio |
| --- | --- |
| AATGTTACCT | 1.27 |
| CGCTAGTTGG | 1 |
| TATGAGACAC | 1.02 |
| AAGGTGGTCA | 1.01 |
| TGTGCTTATC | 1.02 |
| GGTATCGATT | 0.987 |
| ACCGTTAT | 1.08 |
| TTCGAAGAGA | 0.992 |
| GGCGCGCATC | 0.975 |
| ATGCCTCATC | 0.97 |
| ATAGCATCCG | 1.07 |
| CTTGGTGCGC | 1.06 |
| GCAACCCACT | 1.34 |
| ATACGAAGCT | 0.998 |
| TAGCCATCGT | 1.04 |
| ATACGAATTG | 1.04 |
| GTATTACTCG | 1.03 |
| GAGGATGCGT | 1.01 |
| AGGGCTTCGA | 1.04 |
| AAGACGTGGC | 1.02 |
| CAGCGTTAAT | 1.03 |
| TTTGGTCGAT | 1.04 |
| CGGCCTTCGC | 1.34 |
| ACTCTTTTAA | 1.04 |
| GTGTGTCGGG | 0.993 |
| AATAGATTTT | 0.996 |

| Sequence | switch fluorescence ratio |
| --- | --- |
| CGCAGGGTC | 1.41 |
| TCTACAATGA | 1 |
| AAACGTCATA | 1.09 |
| AATGGAAATA | 1.04 |
| CAGGTGGCGA | 1.13 |
| TCATACATGG | 0.9 |
| GCCGAATTGC | 1.01 |
| AAAATAAGG | 0.978 |
| ATATGTGCTC | 0.988 |
| TCAATAATG | 1.14 |
| GCTTCGGGAT | 1.08 |
| TTAAGGAGCC | 1.01 |
| AGTGGTATGC | 1.05 |
| AGAGAAATAA | 0.991 |
| CACGTGACTG | 1.11 |
| GGGGTGCATC | 1.04 |
| ATTGTGGTCT | 1.03 |
| CGGCTGATGA | 0.957 |
| GTTCGTCTTC | 0.979 |
| CAATCATCGT | 1.01 |
| ATCCAAGAG | 1.07 |
| ACAATGTGCT | 0.979 |
| GGGTGATCTT | 1.05 |
| TACAGTGATC | 1.03 |
| AGAGGCGAAA | 1 |
| GGAGACGCC | 1 |

| Sequence | switch fluorescence ratio |
| --- | --- |
| GCGGACGCCA | 0.986 |
| GTTTGATTAA | 1.05 |
| CGGATTGAGA | 1 |
| AACTAGCATG | 1.02 |
| TTGCCTGAAT | 0.978 |
| CGGAGAACGG | 1.07 |
| GAACTACAAT | 1.02 |
| GGGTAGTGTC | 0.971 |
| TGATTAGAAC | 1.04 |
| AGGCAGGAAA | 0.993 |
| AGGGGTTC | 0.954 |
| TGGATCTGG | 1.02 |
| TGAGACACGA | 0.964 |
| TAACGTACCT | 1.31 |
| ACAGATGCCT | 1.09 |
| CTTCGTTTAA | 1.05 |
| AGTATTAGAT | 1.04 |
| ACATTCGAG | 1.03 |
| CTGGGACTAG | 0.976 |
| GTCTAATGGC | 1.04 |
| GGGTGTGGAA | 1 |
| CTCCCCTGGG | 3.91 |
| ATTATTTGAG | 0.976 |
| GATAGCTCCC | 1.17 |
| GCTCTTTTA | 1 |
| ATATGACGGG | 1.03 |

| Sequence | switch fluorescence ratio |
| --- | --- |
| GTCGAAATTT | 1.04 |
| TCTATGCGGT | 1.02 |
| TACTCCCTTG | 1.46 |
| GTGTGCAGGA | 1.05 |
| ACCCGCCCGC | 2.19 |
| AGTGTCAGC | 1.07 |
| TAAGGCTGTA | 1.02 |
| AAACCGGATT | 1.37 |
| GAAATATAAG | 1.01 |
| CGTCGTTGAA | 1.08 |
| ACTTCCAGGA | 1.07 |
| GAATATGGCC | 0.993 |
| TGGCCTTAGT | 1.01 |
| AGGGGAGCAC | 1.03 |
| TAGTGAGTGT | 0.973 |
| CAGAAACAGC | 1.05 |
| CAAGCGGGT | 0.991 |
| CGCGTACACT | 1.13 |
| AAATTTATGG | 1.01 |
| AAGAAGGGTT | 1.01 |
| CGAACGCTTT | 2.71 |
| ATGCGAGGTA | 0.991 |
| TCCAGACCAT | 1.01 |
| GTTCGGGTGT | 1.06 |
| AGTCCCTCTG | 1.07 |
| ACCGCTTATA | 1.85 |

| Sequence | switch fluorescence ratio |
| --- | --- |
| GAATGAGAAG | 1.01 |
| GATCTTTTTA | 1.05 |
| TTGAAGTTCC | 1.12 |
| ATTGATTTTA | 1 |
| GCTTACGTA | 1.13 |
| CAGTGCGCCG | 1.07 |
| GAATAGGGCA | 0.971 |
| GATTTCCGAA | 0.96 |
| TTCGCGTATT | 1.02 |
| ACAGGAGCGA | 0.985 |
| GTTTGGCGTG | 1.02 |
| TGATGTTTCC | 0.987 |
| CTTAAAAGAT | 0.961 |
| AGGGACTGCA | 1.08 |
| CGACCATGT | 0.969 |
| TATGGCGATT | 1.77 |
| TTTTTTTCC | 1.06 |
| GGTTGCCGCG | 0.981 |
| GGTACTTGGT | 1.03 |
| TAATAGTTTT | 0.982 |
| AAAATGGGA | 0.98 |
| TTAATATATC | 0.987 |
| ACTCATTGG | 1.03 |
| CAACCTAAGC | 0.991 |
| AGGTACTTT | 1.06 |
| AAGCTGGAG | 1.09 |

| Sequence | switch fluorescence ratio |
| --- | --- |
| GACTAATCTG | 1.05 |
| TCCTTGCAGC | 3.77 |
| AAATAATGCT | 1.03 |
| GGGTGCAACG | 0.979 |
| CTCGTATTTG | 1.01 |
| TAGATATGGA | 1.08 |
| CAGACTTGTC | 0.987 |
| AATGAGGAGA | 0.988 |
| AGCGCTTAGG | 0.995 |
| ACCGGTGGGG | 0.929 |
| AGCTGTATTA | 0.983 |
| GACTGAGGGC | 0.976 |
| GCGACCAATC | 2.63 |
| ATTAAAGCCA | 1.01 |
| TAGTTAGCCT | 1.02 |
| AATGATGCGA | 0.998 |
| CCTTGGACAC | 1.18 |
| GAGTCGCCGA | 0.966 |
| TTCCCGACGA | 1.34 |
| AGCAGGCTAT | 0.98 |
| GATCAAGGTG | 1.05 |
| TAACGAAATC | 1.19 |
| AAGGAAGGAT | 0.988 |
| AAGTAAGAGA | 1.01 |
| TATTTACTGC | 0.993 |
| AATTAAAATC | 1.02 |

| Sequence | switch fluorescence ratio |
| --- | --- |
| GTCGTACAGG | 0.961 |
| GGTCAAAGCT | 0.957 |
| TTTCGCCGG | 1.1 |
| TTAATGTGTG | 0.947 |
| AAACGGGTTG | 1.01 |
| GGTCGACGT | 1.05 |
| CTAAGGAACA | 1.03 |
| AAGTCGTAGG | 0.965 |
| AATTACCCA | 0.997 |
| CTTATGGATT | 0.989 |
| TTAATGAAGT | 0.985 |
| TTAGTGTTGC | 1.06 |
| TTACGGTTGT | 1.03 |
| GTGGCCAAAT | 1.02 |
| ACTTTTGATT | 0.957 |
| TCTATTTTGC | 1 |
| TATCAGCAGG | 1.05 |
| TAAGCATCAT | 0.988 |
| ATCTACAGTT | 1.02 |
